According to PubChem BioAssay (NCATS):
Where “and” joins values, the source holds several entries; their conditions need not be identical. Equal entries are not always repeated. The inconclusive results got no clear call from the source; some entries with a clear call stand among them for comparison. Potencies of inconclusive entries are left out as doubtful fits. Calls of active or inactive are those of the source. The call rests on the fitted dose curve; in most records, active means well fitted cell-killing curve with a large enough effect; inconclusive means small, poorly fitted or top-dose-only effect; inactive means no such curve, though single readings can be large or run the other way.

Test: qHTS of pediatric cancer cell lines to identify multiple opportunities for drug repurposing: Primary screen for Saos-2 cells (AID 1347097); further: nearly all actives have a fitted effect of over 40% in size
Details: Saos-2 viability, CellTiter-Glo ATP luminescence, 48 h; activity change, negative = cytotoxic: at 46 µM (top of the series)
Method in brief: (§1)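 Readout: CellTiter-Glo luminescence, 48 h treatment. Controls DMSO (neutral) and bortezomib 2.3 µM final (positive). Potency and efficacy taken from primary-screen concentration-response curves.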
Potency means the concentration at half of the fitted maximal effect; tags describe the fitted curve by direction and shape.

| SMILES | Potency |
| --- | --- |
| CO[C@H]1/C=C\O[C@@]2(C)Oc3c(C)c(O)c4c(O)c(c5c(nc6cc(C)ccn65)c4c3C2=O)NC(=O)C(C)=CC=C[C@H](C)[C@H](O)[C@@H](C)[C@@H](O)[C@@H](C)[C@H](OC(C)=O)[C@H]1C | inconclusive [cytotoxic, partial curve] |
| Cc1cc(C(=O)N2CCN(c3cccc(Cl)c3)CC2)n(-c2ccccc2)n1 | active: 0.118 µM |
| O=C1N(c2ccccc2)c2ccccc2C1(Cc1ccncc1)Cc1ccncc1 | inconclusive [cytotoxic, single point] |
| C=C1C(=O)OC2C=C(C)CCC=C(C)CCC12 (stereo unspecified) | active: 33.2 µM |
| COc1c(O)cc2c(c1O)[C@@H]1O[C@H](CO)[C@@H](O)[C@H](O)[C@H]1OC2=O | inconclusive [cytotoxic, partial curve] |
| COc1ccc(-c2nc(N3CCOCC3)c3sc(CN(C)c4ncc(C(=O)NO)cn4)cc3n2)cn1 | active: 0.0066 µM |
| O=C1NC(=O)C(=Cc2ccc3c(c2)OC(F)(F)O3)S1 | inconclusive [cytotoxic, partial curve, poor fit] |

Test: qHTS of pediatric cancer cell lines to identify multiple opportunities for drug repurposing: Primary screen for SK-N-SH cells (AID 1347098); further: nearly all actives have a fitted effect of over 65% in size; on activity change, negative = cytotoxic: on the % scale 0 is the no-effect control and ±100 the full control effect
Details: SK-N-SH viability, CellTiter-Glo luminescence, 48 h; activity change, negative = cytotoxic: at 57 µM (top of the series)
Method in brief: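 Cells (500-1,000/well) rested 5 h, then received compounds for 48 h; metabolically active cells were measured by CellTiter-Glo luminescence. Final concentrations spanned up to 46 µM (MIPE, 11-point) or 0.59 nM-46 µM (NPC, 8-point) in primary screens, 11-point in follow-ups.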

| SMILES | Potency | activity change, negative = cytotoxic |
| --- | --- | --- |
| CN(C)C1CCN(C(=O)c2ccc(NC(=O)Nc3nc(N4CCOCC4)nc(N4CCOCC4)n3)cc2)CC1 | inconclusive [cytotoxic, full curve] | – |
| O=C1Nc2ccc(Cl)cc2C(C#CC2CC2)(C(F)(F)F)O1 (stereo unspecified) | inconclusive [cytotoxic, partial curve] | – |
| CC1(C)CCC(CN2CCN(c3ccc(C(=O)NS(=O)(=O)c4ccc(NCC5CCOCC5)c([N+](=O)[O-])c4)c(Oc4cnc5[nH]ccc5c4)c3)CC2)=C(c2ccc(Cl)cc2)C1 | inconclusive [cytotoxic, single point] | – |
| CN1N=C(N)c2cn([C@@H]3O[C@H](COP(=O)(O)O)[C@@H](O)[C@@H]3O)c3ncnc1c23 | active: 21.5 µM | – |
| CC(C)n1nc(-c2ccc3oc(N)nc3c2)c2c(N)ncnc21 | active: 21.5 µM | – |
| Cc1ccc([C@@H]2O[C@H](CO)[C@@H](O)[C@H](O)[C@@H]2O)cc1Cc1ccc(-c2ccc(F)cc2)s1 | inconclusive [cytotoxic, partial curve] | – |
| CS(=O)(=O)N1CCN(Cc2cc3nc(-c4cccc5[nH]ncc45)nc(N4CCOCC4)c3s2)CC1 | inconclusive [cytotoxic, full curve] | – |
| N#Cc1cc(NC(=O)Nc2nnc(-c3ccncc3)s2)ccc1-c1cn[nH]c1 | inconclusive [cytotoxic, partial curve] | – |
| Oc1ccc(-c2ccc(-c3cc(Nc4cccc(CNC5CC5)c4)n[nH]3)cc2)c(O)c1 | inconclusive [cytotoxic, single point] | – |
| COC(=O)N[C@H](C(=O)N1CCC[C@@H]1c1ncc(-c2ccc(-c3ccc(-c4cnc([C@@H]5CCCN5C(=O)[C@@H](NC(=O)OC)C(C)C)[nH]4)cc3)cc2)[nH]1)C(C)C | – | inactive: -10.5% |
| CN(CCOc1ccc(NS(C)(=O)=O)cc1)CCc1ccc(NS(C)(=O)=O)cc1 | inconclusive [cytotoxic, partial curve] | – |
| CN(C)C(=O)C(CCN1CCC(O)(c2ccc(Cl)cc2)CC1)(c1ccccc1)c1ccccc1 | active: 24.1 µM and active: 15.4 µM | – |
| CCNC(=O)Nc1ccc2ncc(Nc3ccc(C)cc3)nc2n1 | inconclusive [cytotoxic, partial curve, poor fit] | – |
| CCC(=O)NC[C@H](Cc1ccc(OCCc2nc(-c3ccccc3)oc2C)cc1)NC(C)=CC(=O)c1ccc(C(F)(F)F)cc1 | inconclusive [cytotoxic, full curve] | – |
| CC(S)C(=O)NCC(=O)O (stereo unspecified) | inconclusive [cytotoxic, single point] | – |
| Nc1ncnc2c1nc(Cl)n2[C@@H]1O[C@H](CO)[C@@H](O)[C@@H]1O | inconclusive [cytotoxic, partial curve] | – |

Test: qHTS of pediatric cancer cell lines to identify multiple opportunities for drug repurposing: Primary screen for NB1643 cells (AID 1347099); further: nearly all actives have a fitted effect of over 50% in size;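 on activity change, negative = cytotoxic: plate controls were DMSO neutral control for no effect and bortezomib positive control for full effect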
Details: NB1643 neuroblastoma viability, CellTiter-Glo luminescence, 48 h; series mostly up to 46 µM; activity change, negative = cytotoxic: at the top concentration
Method in brief: as §1

| SMILES | Potency | activity change, negative = cytotoxic |
| --- | --- | --- |
| CCCC1OC2C[C@@H]3[C@H]4CCC5=CC(=O)C=C[C@]5(C)[C@H]4C(O)C[C@]3(C)[C@]2(C(=O)CO)O1 (stereo partly specified) | active: 20.9 µM | – |
| Cc1nc(Nc2n[nH]c3c2CN(C(=O)N[C@H](CN(C)C)c2ccccc2)C3(C)C)c2sccc2n1 | active: 0.935 µM | – |
| CN(C[C@@H]1COCCO1)S(=O)(=O)Nc1ccc2ccc3ncc(-c4cnn(C)c4)cc3c(=O)c2c1 | inconclusive [cytotoxic, partial curve] | – |
| Cc1cn2c(-c3cn[nH]c3)cnc2c(Nc2ccc(C(=O)N3CCNCC3)cc2F)n1 | active: 18.7 µM | – |
| N#CNC(=NCCCCCCOc1ccc(Cl)cc1)Nc1ccncc1 | active: 0.0074 µM | – |
| CC=CC(=O)N(CC)c1ccccc1C | inconclusive [cytotoxic, partial curve, poor fit] | – |
| CC(C)n1nc(-c2ccc3oc(N)nc3c2)c2c(N)ncnc21 | inconclusive [cytotoxic, partial curve, poor fit] | – |
| CN(C)CC[C@H](CSc1ccccc1)Nc1ccc(S(=O)(=O)NC(=O)c2ccc(N3CCN(Cc4ccccc4-c4ccc(Cl)cc4)CC3)cc2)cc1[N+](=O)[O-] | active: 0.0187 µM | – |
| Cc1ccc([C@@H]2O[C@H](CO)[C@@H](O)[C@H](O)[C@@H]2O)cc1Cc1ccc(-c2ccc(F)cc2)s1 | inconclusive [cytotoxic, partial curve] | – |
| COCCOC(=O)C1=C(C)NC2=C(C(=O)CC(c3ccccc3OC)C2)C1c1cccc(O)c1 (stereo unspecified) | active: 20.9 µM | – |
| Cc1cccc2c1CC[C@H](CN1CCC(c3c(Cl)cccc3Cl)CC1)C[C@@H]2O | – | inactive: -5.12% |
| N#Cc1cc(NC(=O)Nc2nnc(-c3ccncc3)s2)ccc1-c1cn[nH]c1 | inconclusive [cytotoxic, single point] | – |
| CCOC(=O)C1=C[C@]2(CC)CCCN3CCc4c(n1c1ccccc41)[C@@H]32 | inconclusive [cytotoxic, single point] | – |
| COC(=O)N[C@H](C(=O)N1CCC[C@@H]1c1ncc(-c2ccc(-c3ccc(-c4cnc([C@@H]5CCCN5C(=O)[C@@H](NC(=O)OC)C(C)C)[nH]4)cc3)cc2)[nH]1)C(C)C | inconclusive [cytotoxic, single point] | – |
| COc1cc(C(C)C)c(Oc2cnc(NC(CO)CO)nc2N)cc1I | active: 2.96 µM | – |
| CN(C)C(=O)C(CCN1CCC(O)(c2ccc(Cl)cc2)CC1)(c1ccccc1)c1ccccc1 | inconclusive [cytotoxic, single point] | – |
| COc1cc([C@@H]2c3cc4c(cc3[C@H](O)[C@H]3COC(=O)[C@H]23)OCO4)cc(OC)c1OC | inconclusive [cytotoxic, full curve] | – |
| O=c1cc(N2CCOCC2)oc2c(-c3cccc4c3sc3ccccc34)cccc12 | active: 5.26 µM | – |
| CO[C@H]1/C=C\O[C@@]2(C)Oc3c(C)c(O)c4c(O)c(c5c(nc6cc(C)ccn65)c4c3C2=O)NC(=O)C(C)=CC=C[C@H](C)[C@H](O)[C@@H](C)[C@@H](O)[C@@H](C)[C@H](OC(C)=O)[C@H]1C | inconclusive [cytotoxic, partial curve] | – |
| Cc1cc(C(=O)N2CCN(c3cccc(Cl)c3)CC2)n(-c2ccccc2)n1 | inconclusive [cytotoxic, full curve] | – |
| CCNC(=O)Nc1ccc2ncc(Nc3ccc(C)cc3)nc2n1 | inconclusive [cytotoxic, full curve, poor fit] | – |
| N=C(N=C(N)N)N1CCOCC1 | inactive | – |
| O=C1NC(=O)C(=Cc2ccc3c(c2)OC(F)(F)O3)S1 | inconclusive [cytotoxic, partial curve, poor fit] | – |
